Measurements from article PMC7757826.
These are yes or no findings as the source states them, for the method shown. In cells and extracts the contact can be indirect. Some binding calls cover weakened binding; strength is not graded here.

Amino acid sequences for entries named in this document (tags omitted).
UniProt O14493: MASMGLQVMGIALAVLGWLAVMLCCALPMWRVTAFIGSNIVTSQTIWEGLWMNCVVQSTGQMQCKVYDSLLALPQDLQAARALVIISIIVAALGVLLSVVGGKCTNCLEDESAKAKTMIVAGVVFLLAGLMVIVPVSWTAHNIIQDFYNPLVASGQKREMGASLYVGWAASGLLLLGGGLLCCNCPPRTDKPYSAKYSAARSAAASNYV

T1: Epithelial cell adhesion molecule (EpCAM) (human (endogenous in A2780, OVCAR-3, SKOV-3 and A2780cis cells)) (UniProt P16422)
T1 sequence: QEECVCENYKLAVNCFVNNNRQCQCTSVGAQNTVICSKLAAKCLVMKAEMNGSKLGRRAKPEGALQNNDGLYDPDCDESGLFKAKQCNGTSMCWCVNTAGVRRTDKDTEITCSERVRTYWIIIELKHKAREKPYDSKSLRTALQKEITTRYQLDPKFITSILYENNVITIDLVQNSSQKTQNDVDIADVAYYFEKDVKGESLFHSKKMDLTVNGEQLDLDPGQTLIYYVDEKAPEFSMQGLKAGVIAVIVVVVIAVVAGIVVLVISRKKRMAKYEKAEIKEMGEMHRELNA

T2: CD82 (Tspan-27) (human (endogenous in A2780, OVCAR-3, SKOV-3 and A2780cis cells)) (UniProt P27701)
T2 sequence: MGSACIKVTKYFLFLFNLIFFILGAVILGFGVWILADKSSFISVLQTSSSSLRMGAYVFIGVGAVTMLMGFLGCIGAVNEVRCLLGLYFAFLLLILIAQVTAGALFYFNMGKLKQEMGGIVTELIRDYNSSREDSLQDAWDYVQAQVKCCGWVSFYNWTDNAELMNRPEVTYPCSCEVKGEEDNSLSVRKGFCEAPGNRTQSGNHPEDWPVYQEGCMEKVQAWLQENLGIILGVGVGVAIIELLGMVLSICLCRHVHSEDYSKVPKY

T3: claudin-7 (human (endogenous in A2780, OVCAR-3, SKOV-3 and A2780cis cells)) (UniProt O95471)
T3 sequence: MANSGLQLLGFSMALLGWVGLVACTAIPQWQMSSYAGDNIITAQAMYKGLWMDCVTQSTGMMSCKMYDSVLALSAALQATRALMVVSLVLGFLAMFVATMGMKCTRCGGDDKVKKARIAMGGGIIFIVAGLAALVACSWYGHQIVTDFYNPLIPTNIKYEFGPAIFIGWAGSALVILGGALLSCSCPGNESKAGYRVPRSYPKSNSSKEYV


Columns and labels:
[1] = molecular target: T1, Epithelial cell adhesion molecule (EpCAM) (human (endogenous in A2780, OVCAR-3, SKOV-3 and A2780cis cells)); assay: co-IP; A2780cis (cisplatin-resistant) cells lysed in 1% Triton X-100 buffer; lysates precipitated with antibodies to the studied molecules, western blot
[2] = molecular target: T2, CD82 (Tspan-27) (human (endogenous in A2780, OVCAR-3, SKOV-3 and A2780cis cells)); assay: cross-linking + co-IP; A2780 cells treated with the membrane-permeable cross-linker DSP (1 mM, 30 min, 37 °C), lysed in RIPA buffer; anti-CD82 or anti-claudin-7 precipitates
[3] = molecular target: T3, claudin-7 (human (endogenous in A2780, OVCAR-3, SKOV-3 and A2780cis cells)); assay: as above
[4] = molecular target: T2, CD82 (Tspan-27) (human (endogenous in A2780, OVCAR-3, SKOV-3 and A2780cis cells)); assay: cross-linking + co-IP; A2780 cells treated with the membrane-impermeable cross-linker DTSSP (1 mM, 30 min, 37 °C), lysed in RIPA buffer; anti-CD82 or anti-claudin-7 precipitates
[5] = molecular target: T3, claudin-7 (human (endogenous in A2780, OVCAR-3, SKOV-3 and A2780cis cells)); assay: as above
[6] = molecular target: T3, claudin-7 (human (endogenous in A2780, OVCAR-3, SKOV-3 and A2780cis cells)); assay: cross-linking + co-IP; SKOV-3 cells treated with DSP or DTSSP (1 mM, 30 min, 37 °C), claudin-7 precipitates also after 2-BP beforehand, lysed in RIPA buffer; anti-CD82 or anti-claudin-7 precipitates
[7] = molecular target: T2, CD82 (Tspan-27) (human (endogenous in A2780, OVCAR-3, SKOV-3 and A2780cis cells)); assay: condition: only lysed in RIPA buffer, untreated or DSP-treated cells; cross-linking + co-IP; A2780 cells treated with the membrane-permeable cross-linker DSP (1 mM, 30 min, 37 °C), lysed in RIPA buffer; anti-CD82 or anti-claudin-7 precipitates

binding [1]	binding [2]	binding [3]	binding [4]	binding [5]	binding [6]	binding [7]	Molecule
binds	binds	–	–	–	–	–	claudin-4 (from UniProt O14493 1-209)
–	–	binds	binds	binds	binds	no binding	Epithelial cell adhesion molecule (EpCAM) (protein, UniProt P16422 24-314) QEECVCENYKLAVNCFVNNNRQCQCTSVGAQNTVICSKLAAKCLVMKAEMNGSKLGRRAKPEGALQNNDGLYDPDCDESGLFKAKQCNGTSMCWCVNTAGVRRTDKDTEITCSERVRTYWIIIELKHKAREKPYDSKSLRTALQKEITTRYQLDPKFITSILYENNVITIDLVQNSSQKTQNDVDIADVAYYFEKDVKGESLFHSKKMDLTVNGEQLDLDPGQTLIYYVDEKAPEFSMQGLKAGVIAVIVVVVIAVVAGIVVLVISRKKRMAKYEKAEIKEMGEMHRELNA
